# Measured values from ChEMBL document CHEMBL1157539, “Thousands of chemical starting points for antimalarial lead identification” (Nature, 2010).
# In all, about 13,000 compounds were measured (“IFI”: median about 4, highest 2% from about 17 on). The list shows a part of the results.
# Experiment: GSK_TCMDC: Inhibition Frequency Index (IFI). The number of non-kinase HTS assays where a compound showed > 50 % inhibition, expressed as a percentage of the number of such assays in which the compound was tested (-0 is zero)
# Format: functional
row,SMILES,IFI [%]
1,CCCCNc1c(C(=O)OCC)c(C)nc2c1[nH]c1ccccc12,2.17
2,CC(=O)Nc1ccc(C(=O)Nc2cccc(-c3ccc(-c4nc5cccc(C)c5[nH]4)cc3)c2)cn1,5.36
3,Nc1nc(N)c2c(ccc3nn(C4CCCC4)cc32)n1,2.78
4,CCCNC(=O)c1cncc(-c2ccc(CNCCCc3ccccc3)cc2)c1,1.61
5,O=C1CCCN1CCCNCc1ccc(-c2cccc(-c3nc4ccccc4[nH]3)c2)cc1,1.92
6,CC(C)(C)c1ccccc1OC(=O)c1ccccc1,1.5
7,Cc1nc2c(=O)sc3ccccc3c2n1Cc1ccccc1,2.16
8,FC(F)(F)c1cccc(CNC2CCN(CC3CCCCC3)CC2)c1,2.7
9,CCN(CC)c1ccccc1CNC(=O)c1cc(Cl)c(N)cc1OC,2.94
10,COc1ccc(-c2cccc(NC(=O)c3cccc(Cl)c3)c2)cc1CN1CCCC1,6
11,Cc1[nH]c(C)c(-c2ccc(-c3ccc(OC(F)(F)F)cc3)cc2)c(=O)c1Cl,3.67
12,COc1cc2ccccc2c(CNCCCCCCNCc2c(OC)c(OC)cc3ccccc23)c1OC,12.1
13,CS(=O)(=O)c1ccc(CCNCc2ccc(-c3cccc(-c4nc5ccccc5[nH]4)c3)cc2)cc1,6.73
14,CN(C)CCCNCc1ccc(-c2ccc(CNCCOc3ccccc3)cc2)cc1,4.86
15,COc1cc2c(cc1COc1ccccc1)CCN1Cc3cc(OC)c(OC)cc3CC21 (stereo unspecified),0
16,CS(=O)(=O)c1cc2c(Nc3ccc(N4CCOCC4)cc3)c(C(N)=O)cnc2cc1Br,4.96
17,Cc1c(CNCCCNc2cc(=O)c3ccccc3[nH]2)sc(C(F)F)c1Br,5.84
18,O=c1c(NCCCN(Cc2ccc(F)cc2)c2ccccn2)c(NCc2ccncc2)c1=O,0.7
19,CCN(CC)CCCC(C)Nc1ccnc2[nH]c3ccccc3c12 (stereo unspecified),0.78
20,CCNC(=O)CCc1cccc(Br)c1,3.76
21,COc1ccc(Nc2ccnc3cc4ccccc4cc23)cc1,3.73
22,COc1cc(Nc2nc(N)n(C(=O)c3ccc4c(c3)OCO4)n2)cc(OC)c1OC,9.09
23,NCC1CCCN1Cc1ccc(-c2ccc(-c3nc4cc(C(F)(F)F)ccc4[nH]3)s2)cc1 (stereo unspecified),6.93

row,SMILES,IFI [%]
1,O=C(C=Cc1cn(-c2ccccc2)nc1-c1ccccc1)N1CCN(c2ccncc2)CC1,9.33
2,CCCc1cn2c3c(cc(C(=O)N[C@@H](Cc4ccccc4)[C@H](O)CNC4CCOCC4)cc13)N(C)S(=O)(=O)CC2,2.36
3,Cn1c(N)c(C(=O)CSc2ncc(-c3ccc(F)cc3)n2Cc2ccccc2)c(=O)n(C)c1=O,1.49
4,COc1cc(NCC(C)CNCc2cn(Cc3ccccc3)c3ccccc23)nc2ccccc12 (stereo unspecified),7.19
5,O=C(Nc1ccc(Cl)cc1)Nc1nc2cc([N+](=O)[O-])ccc2[nH]1,6.29
6,Cc1[nH]c(C)c(-c2ccc(OCCOc3ccc(C(F)(F)F)cn3)cc2)c(=O)c1Br,3.77
7,N[C@@H](Cc1cc(I)c(Oc2ccc(O)c(C(=O)O)c2)c(I)c1)C(=O)O,-0
8,O=C(/C=C/c1cccc2c1OCO2)Nc1ccnc2ccncc12,-0
9,O=C(Nc1nccs1)c1cn(-c2ccccc2)nc1-c1ccc(Cl)s1,2.14
10,O=C(CC1CCCCC1)NCC(NCCCNc1cc(=O)c2ccccc2[nH]1)c1cc(Br)cc(Br)c1 (stereo unspecified),4.51
11,O=C(N[C@H]1CCN(CCc2ccc(O[C@H]3CCNC3)c(Cl)c2)C1)c1ccc(Cl)c(Cl)c1,3.55
12,Cc1c(N)ccc2[nH]c(-c3ccc(N)cc3)nc12,4.2
13,CC(C)CCNCc1c(O)ccc2ccccc12,0
14,Cc1cc(NC2CCCC2)nc(Nc2ccccc2C)n1,3.08
15,COc1cccc(-c2nc3c(N4CCN(c5ccncc5)CC4)cccc3n2CC2CCCCCN2)n1 (stereo unspecified),2.03
16,CN(C)c1cc(NC(=O)Nc2ccc(SC(F)(F)F)cc2)c2ccccc2n1,15
17,OC1=C2C(=Nc3ccccc3SC2c2cccs2)c2ccccc21 (stereo unspecified),3.5
18,C[C@H](NC(=O)c1c(CN2CCC(N3CCCCC3)CC2)c(-c2ccccc2)nc2cc(O)ccc12)C1CCCCC1,2.14
19,FC(F)(F)c1cnc(Sc2nnc(-c3ccco3)o2)c(Cl)c1,6.38
20,Clc1ccc(OCc2ccccc2)c(-c2nc(-c3nc4ccc(Cl)cc4[nH]3)cs2)c1,1.3
21,N=C(N)NN=Cc1c2ccccc2c(Cl)c2ccc(Cl)cc12,11.7
22,COc1ccccc1NC(=O)Nc1cccc(-c2ccc(-c3nc4cc(C(F)(F)F)ccc4[nH]3)cc2)c1,6.06
23,COc1ccc(-c2ccc(NC(=O)c3ccc(C#N)cc3)cc2)cc1CN(C)CCO,2.97

row,SMILES,IFI [%]
1,CC(=O)Nc1ccc(CN2CCc3ccc(NS(=O)(=O)c4cccc(OCc5ccc(Cl)cc5)c4)cc3CC2)s1,7.06
2,N#Cc1ccc(N(CCNS(=O)(=O)c2cc(Br)c(Cl)s2)Cc2ccccc2C(F)(F)F)cc1C(F)(F)F,2.96
3,Cc1noc(C)c1-c1cccc(CNCc2ccc(-c3cccc(-c4nc5ccccc5[nH]4)c3)cc2)c1,5.71
4,CCN(c1ccc(O)c(CN2CCCCC2)c1)c1ccc([N+](=O)[O-])cn1,-0
5,CC(C)NCc1ccc(-c2ccc(-c3nc4cc(C(F)(F)F)ccc4[nH]3)s2)cc1,8.57
6,COc1ccc(CNCCc2cccs2)cc1-c1ccc(OC)c(S(=O)(=O)NCCN2CCCC2)c1,7
7,O=C(NCc1cccc(C(F)(F)F)c1)C1CCCN(C(=O)c2ccc(O)c(-c3ccc(Cl)c(Cl)c3)c2)C1 (stereo unspecified),4.51
8,CN(C)CCN1CCN(CCCN2c3ccccc3Sc3ccc(C(F)(F)F)cc32)CC1,9.79
9,CN1CCN(c2ccnc3ccc(NC(=O)Nc4ccc5c(c4)CCCC5=O)cc23)CC1,0
10,COc1cc(Cl)c(C)cc1-n1cc(C(=O)c2cc(Br)ccc2O)cc(C#N)c1=O,4.29
11,COc1c(C2=CCN(CCCCNC(=O)c3ccc(-c4ccc(C#N)cc4)cc3)CC2)ccc2c1CCCC2,7.27
12,CC(Cc1ccc(NC(=O)c2ccc(CNCc3ccccc3)cc2)cc1)N(CCc1cccc(Cl)c1)C(=O)OC(C)(C)C (stereo unspecified),1.44
13,COc1cc2c(c(Cl)c1OC)CCN(Cc1ccccc1)CC2c1ccc(C(N)=O)cc1 (stereo unspecified),-0
14,C=CCOC(=O)N1CCC(CNCc2ccc(-c3cccc(-c4nc5cccc(C)c5[nH]4)c3)cc2)C1 (stereo unspecified),7.84
15,CC(C)NCc1ccc(-c2ccc(-c3nc4cc(F)ccc4[nH]3)cc2)cc1,7.77
16,O=C(NC1CC1)c1cnc(N2CCCC(c3ccccc3)C2)c(Cl)c1 (stereo unspecified),6.12
17,COc1cc(OC)cc(C(=O)Nc2cccc(-c3cn4ccc(C)cc4n3)c2)c1,-0
18,CCOc1ccc(N2CCN(CCCCNC(=O)c3ccc(NC(=O)c4ccc(Cl)cc4)cc3)CC2)c(OCC)c1,3.54
19,O=C(/C=C/c1ccc(Cl)c(Cl)c1)NCCCCCN1CCC(NC(=O)Nc2cccc(C(F)(F)F)c2)CC1,10
20,N#Cc1cccc(-c2cnc(N)c(-c3nc4cc(S(N)(=O)=O)ccc4[nH]3)c2)c1,5.04
21,CCN(CC)C(=O)C1CCCN(c2cc(C)nc(Nc3ccc(Cl)cc3)n2)C1 (stereo unspecified),7.23
22,O=C(N[C@@H](Cc1ccccc1)[C@H](O)CNC1CCCc2ccccc21)c1cc(C2CCCC2)cc(N2CCCC2=O)c1 (stereo partly specified),10.6
23,CCc1nc(N)nc(N)c1-c1ccc(C(C)(C)C)cc1,2.08

row,SMILES,IFI [%]
1,CO/C(=C\C=C\c1cc2cc(Cl)c(Cl)cc2[nH]1)C(=O)NCCCN1CCN(c2cccc(O)c2)CC1,14.6
2,COc1cc2nccc(Nc3ccc(NC(=O)c4ccc(C)cc4)c(O)c3)c2cc1OC,5.11
3,Brc1cc(Br)c2c(c1)C(NCCCNc1nc3ncccc3[nH]1)CCN2 (stereo unspecified),6.15
4,COc1ccc2ncc(F)c(NC(=O)C3CCC(NCc4cc5c(F)cccc5[nH]4)CC3)c2n1 (stereo unspecified),2.86
5,FC(F)(F)c1ccc2[nH]c(-c3cccc(-c4ccc(CNCCc5ccncc5)cc4)c3)nc2c1,9.8
6,N=C(NCCc1c[nH]c2ccccc12)NCc1ccccc1Cl,4.32
7,COc1ccc(CCN(C)CCCOc2ccc(NC(=O)COc3cccc4sc5ccccc5c(=O)c34)cc2)cc1OC,10
8,COc1cc(C(=O)N2N=C(c3c(-c4ccccc4)c4cc(Br)ccc4[nH]c3=O)CC2c2cccc([N+](=O)[O-])c2)cc(OC)c1OC (stereo unspecified),1.54
9,COc1ccccc1C1CCN(C2CCC(NC(=O)/C=C/c3cccc(Cl)c3F)CC2)CC1 (stereo unspecified),8.33
10,O=C(Nc1ccccc1)N(Cc1cccc(-c2ccc(CNC3CCCC3)cc2)c1)C1CCN(Cc2ccccc2)CC1,10.6
11,O=C(Nc1ccc(OC2CCN(Cc3ccc(F)cc3)C2)cc1)c1cccs1 (stereo unspecified),3.28
12,CNC(=O)c1cnc(Nc2ccc(N3CCOCC3)cc2)nc1Nc1cccc(OC)c1,3.73
13,CCOc1ccccc1C1CCN(CCCCNC(=O)c2ccc(NC(=O)c3ccc(Cl)cc3)cc2)CC1,2.75
14,O=C(/C=C/c1cc([N+](=O)[O-])ccc1Cl)N1CCC(CCN2CCC(c3c[nH]c4ccccc34)CC2)CC1,4.51
15,COc1ccc(-c2ccc(CNCc3ccccc3)cc2)cc1S(=O)(=O)NCCN1CCCC1,4.63
16,Cc1ccccc1NC(=S)NC1CCN(CCCCCNC(=O)/C=C/c2ccc(Cl)c(Cl)c2)CC1,7.09
17,CCCNC(=O)c1ccnc(-c2ccc(CNC3Cc4ccccc4C3)cc2)c1,3.28
18,COc1ccccc1CCC(C)(C)NC(=O)CC(CCc1ccccc1)Nc1ccc(C#N)c2ccccc12 (stereo unspecified),1.9
19,COC(=O)c1ccc(CC(C)NCC(O)c2ccc(C(O)CNC(C)Cc3ccc(C(=O)OC)cc3)cc2)cc1 (stereo unspecified),5.67
20,CN(CCc1ccccn1)c1cccc2c1nc(-c1cccnc1)n2CCNCc1ccccc1,1.35
21,O=C(NC1CCN(CCN2CCC(c3c[nH]c4ccccc34)CC2)CC1)c1ccc(-c2ccc(C(F)(F)F)cc2)cc1,11.6
22,FC(F)(F)c1ccc2[nH]c(-c3cccc(-c4ccc(CNCC5CCCO5)cc4)c3)nc2c1 (stereo unspecified),5.88
